According to PMC5214253:
Results are given in words; binding and its absence hold for the method and conditions named. In cells and extracts the contact can be indirect. Some binding calls cover weakened binding; strength is not graded here.

How the values were obtained:
Flag-TRIM5α-dC = Flag-TRIM5α-dC (UniProt Q9C035); test: co-IP
Flag-TRIM5α = Flag-TRIM5α (UniProt Q9C035); test: co-IP
[1] = biological target: Flag-tagged Rta (Epstein–Barr virus) (UniProt P03209); test: co-IP; lysates of 293T cells cotransfected with a Flag-tagged protein and GFP or GFP fusions; IP with anti-Flag, blot with anti-GFP
[2] = biological target: Rta expressed from pCMV-Rta (Epstein–Barr virus) (UniProt P03209); test: co-IP
GST-TRIM5α = GST-TRIM5α (UniProt Q9C035); test: pull-down; only the target purified
HA-TRIM5α = HA-TRIM5α (UniProt Q9C035); test: co-IP

GFP-N190 (from UniProt P03209 1-190) (domain or fragment)
binding (Flag-TRIM5α-dC): binds | binding (Flag-TRIM5α): binds

GFP-TRIM5α (from UniProt Q9C035 1-493)
binding [1]: binds

GFP-TRIM5α-dC (from UniProt Q9C035 1-261) (domain or fragment)
binding [1]: binds

GFP-TRIM5α-dN (from UniProt Q9C035 81-493) (domain or fragment)
binding [1]: no binding

GFP-TRIM5α-dNM (from UniProt Q9C035 261-493) (domain or fragment)
binding [1]: no binding

HA-TRIM5α (from UniProt Q9C035 1-493)
binding [2]: binds

His-tagged Rta (from UniProt P03209 1-605)
binding (GST-TRIM5α): binds

Rta expressed from pCMV-Rta (from UniProt P03209 1-605)
binding (HA-TRIM5α): binds
